Results published in publication PMC4336329 (PLoS ONE, 2015).
Out of some 310,000 compounds screened, about 14,000 (4.5%) showed an effect of 50% or more. The effect is printed as a negative number. Some of the results follow.

Molecular target: human ether-à-go-go-related gene (hERG) potassium channel (human, UniProt Q12809)
Test: primary screen, population patch clamp on CHO cells stably expressing hERG
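Note: peak tail current of the secondary pulse compared with the same well before compound.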

Chain of human ether-à-go-go-related gene (hERG) potassium channel (Q12809 whole entry, looked up): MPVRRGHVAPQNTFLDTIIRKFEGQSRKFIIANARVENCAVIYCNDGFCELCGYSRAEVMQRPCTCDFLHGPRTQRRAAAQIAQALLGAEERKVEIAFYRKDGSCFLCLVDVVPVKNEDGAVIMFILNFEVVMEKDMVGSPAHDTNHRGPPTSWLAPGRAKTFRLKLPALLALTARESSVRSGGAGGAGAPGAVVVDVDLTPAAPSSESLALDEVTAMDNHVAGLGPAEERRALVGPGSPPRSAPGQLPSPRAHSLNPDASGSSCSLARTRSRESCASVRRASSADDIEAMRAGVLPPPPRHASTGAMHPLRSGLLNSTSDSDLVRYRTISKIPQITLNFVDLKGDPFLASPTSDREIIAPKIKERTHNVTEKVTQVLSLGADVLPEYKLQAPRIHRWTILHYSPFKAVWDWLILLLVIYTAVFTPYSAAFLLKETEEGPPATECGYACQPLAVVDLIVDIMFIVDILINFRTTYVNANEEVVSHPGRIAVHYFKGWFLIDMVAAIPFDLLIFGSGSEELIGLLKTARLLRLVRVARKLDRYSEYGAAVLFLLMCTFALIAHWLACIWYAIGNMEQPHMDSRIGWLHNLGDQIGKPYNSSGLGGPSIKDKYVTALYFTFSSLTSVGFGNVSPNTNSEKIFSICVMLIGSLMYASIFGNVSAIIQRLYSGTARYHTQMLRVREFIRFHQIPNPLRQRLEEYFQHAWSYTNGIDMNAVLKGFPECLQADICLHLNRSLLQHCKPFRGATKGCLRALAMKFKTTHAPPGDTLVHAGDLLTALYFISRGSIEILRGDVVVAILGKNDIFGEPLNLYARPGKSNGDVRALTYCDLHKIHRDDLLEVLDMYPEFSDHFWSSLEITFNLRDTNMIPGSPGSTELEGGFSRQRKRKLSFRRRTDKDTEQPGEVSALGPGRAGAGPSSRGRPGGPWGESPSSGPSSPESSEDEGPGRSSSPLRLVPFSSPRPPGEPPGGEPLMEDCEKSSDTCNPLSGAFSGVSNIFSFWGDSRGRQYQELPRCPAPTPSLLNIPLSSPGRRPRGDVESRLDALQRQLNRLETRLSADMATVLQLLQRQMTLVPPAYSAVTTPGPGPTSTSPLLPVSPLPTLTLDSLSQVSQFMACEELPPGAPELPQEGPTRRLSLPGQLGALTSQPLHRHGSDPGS

| SMILES | hERG current change (%, negative = inhibition) at 10uM [%] |
| --- | --- |
| CC(C)(C)NC(=O)CSc1ncccc1-c1nc2ccccc2[nH]1 | -4.73 |
| COCC(=O)Oc1c(S(=O)(=O)c2ccccc2)c(C)nn1C(C)(C)C | 16.6 |
| Cc1cc(C(=O)CN2C(=O)NC3(CCCCC3)C2=O)c(C)n1C | -10.3 |
| COc1ccc(CN(C)C(=O)c2ccc3c(=O)n4c(nc3c2)CCC4)c(OC)c1 | 9.18 |
| CCCS(=O)(=O)N1CCC(C(=O)NCCN(C)Cc2ccccc2)CC1 | 0.0818 |
| Cl.Nc1nc2nc(SCC(=O)N3CCCc4ccccc43)[nH]c2c(=O)[nH]1 | 8.64 |
| Nc1nc(SCc2ccccc2)ns1 | 3.95 |
| Cc1nn(CC(=O)NCc2ccco2)c(C)c1[N+](=O)[O-] | 9.92 |
| COc1ccc(N=CC2=C(O)CC(C)(C)CC2=O)cc1 | 7.47 |
| Cc1ccc(C(=O)NCc2nnc(SCC(=O)Nc3sc4c(c3C#N)CCCC4)n2C)cc1 | -8.88 |
| CCC(Sc1ccccn1)C(=O)Nc1cccc([N+](=O)[O-])c1 (stereo not drawn) | -38.7 |
| CC(=O)n1cc([C@H]2C=C(C(=O)N3CCN(Cc4ccccc4)CC3)O[C@@H](OCCCCO)C2)c2ccccc21 | -42.5 |
| CCCn1c(=S)[nH]c2ccccc2c1=O | 5.51 |
| Nc1c(N(Cc2ccco2)C(=O)c2cccc(F)c2)c(=O)[nH]c(=O)n1Cc1ccccc1 | 5.17 |
| Cc1ccc(C(C)C)c(OCC(=O)Nc2ccc3c(c2)nc(CCN2CCCCC2)n3C)c1 | -75.8 |
| O=C(NC1CCCC1)C(c1cccs1)N(Cc1ccco1)C(=O)Cn1nnc(-c2cccs2)n1 (stereo not drawn) | 2.45 |
| N#Cc1cccc(CN2CCC(=O)N([C@H](CO)Cc3ccccc3)CC2)c1 | -10 |
| COc1ccc(C(=O)N/N=C/c2sc(=O)n(Cc3cccc(C(=O)O)c3)c2Cl)cc1 | -1.9 |
| CCOc1ccccc1CN1CCNC(=O)C1CC(=O)NCCc1ccccn1 (stereo not drawn) | 1.42 |
| COC(=O)[C@H](Cc1ccccc1)NC(=O)NCCc1ccccc1F | 6.33 |
| COCCCN1C(=O)C(O)=C(C(=O)c2ccco2)C1c1cccc(Br)c1 (stereo not drawn) | 2.9 |
| O=C1OC(/C(=C\Nc2ccc(F)cc2F)[N+](=O)[O-])c2ccccc21 (stereo not drawn) | 14 |

| SMILES | hERG current change (%, negative = inhibition) at 10uM [%] |
| --- | --- |
| CCSC1=C(C#N)C(c2ccccc2Cl)C(C(=O)c2cccs2)C(O)(C(F)(F)F)N1 (stereo not drawn) | 8.8 |
| COc1cccc(C(=O)Oc2c(CN3CCOCC3)cc(Cl)c3cccnc23)c1 | -39 |
| COc1ccc(CCNc2cc(C)nc3c(-c4ccc(Cl)cc4)c(C)nn23)cc1OC | 15.5 |
| CCc1ccc(NC(=O)c2cnn(-c3ccccc3)c2C)cc1 | 2.7 |
| Cc1sc2ncnc(SCC(=O)NC(=O)NCc3ccco3)c2c1C | -7.52 |
| Cc1ccc(C(=O)/C=C2\NCCNC2=O)cc1 | 10.9 |
| O=C(NCCN1CCOCC1)c1cc(-c2ccc(Cl)cc2)on1 | -26.1 |
| O=C(Nc1ccc(Cl)cc1)c1ccc(OCC2CCCO2)cc1 (stereo not drawn) | -7.37 |
| C/C(=N\NC(=O)c1cccc(O)c1)c1cccc(NC(=O)c2ccc(F)cc2)c1 | -8.24 |
| COC(=O)CN1CCN(C(=O)c2ccco2)CC1 | 10 |
| CCCCn1c(N)c(N(CCOC)C(=O)c2ccc(S(=O)(=O)N3CCCCC3)cc2)c(=O)[nH]c1=O | -25.1 |
| CC(=O)c1cccc(NC(=S)N2CCc3ccccc32)c1 | 15.7 |
| N/C(=N\NC(=O)c1ccc(Cl)cc1)c1cnccn1 | 8.81 |
| CCOC(=O)c1cc2[nH]c3ccccc3c2[n+](-c2ccc([N+](=O)[O-])cc2)c1C.[Cl-] | -77.8 |
| CN(C)/C=C(/C(=O)c1ccc(F)cc1)S(=O)(=O)c1ccc(F)cc1 | 7.78 |
| COc1cccc(NC(=O)C(C)N2C(=O)c3ccccc3C2=O)c1 (stereo not drawn) | 0.532 |
| Cn1c(CNC(=O)C2CCCCC2)cc2ccccc21 | 17 |
| CC1CC(C)CN(S(=O)(=O)c2ccc3c(c2)CCN3C(=O)CCC(=O)O)C1 (stereo not drawn) | 18.4 |
| Nc1nc2ccccc2n1C(=O)c1ccccc1 | -15.2 |
| COc1cccc(-n2c(SCC(N)=O)nnc2-c2ccco2)c1 | 13.7 |
| O=C(O)Cc1c(C(=O)O)[nH]c2ccc(C(=O)O)cc12 | 12.2 |
| FC(F)(F)c1cc(-c2ccccc2)nc(NCc2cccs2)n1 | -2.52 |

| SMILES | hERG current change (%, negative = inhibition) at 10uM [%] |
| --- | --- |
| Cc1ccc(CNC(=O)c2ccc(Cl)c(S(=O)(=O)N3CCCCC3)c2)cc1 | -27.3 |
| CCC(C)N(C(=O)COC(=O)CN=C1NS(=O)(=O)c2ccccc21)C1CCS(=O)(=O)C1 (stereo not drawn) | 1.69 |
| COc1cc(OC)c(OC)cc1CCC(C)NC(=O)Cc1ccccc1 (stereo not drawn) | 5.68 |
| CNC(=O)NC(=O)CSc1nnc(C(F)(F)F)n1C | 7.84 |
| CC(Oc1ccc(F)cc1)C(=O)Nc1cc(S(=O)(=O)N2CCOCC2)ccc1N1CCN(C)CC1 (stereo not drawn) | -29.9 |
| O=C(Nc1ccccc1F)Nc1cc(S(=O)(=O)N2CCOCC2)ccc1N1CCCC1 | -19 |
| O=C1c2ccncc2C(=O)N1Cc1cccc(Cl)c1 | -4.02 |
| COc1ccccc1C(=O)NC(CCSC)C(=O)OCC(=O)c1ccc[nH]1 (stereo not drawn) | -28.9 |
| COc1cccc(N2CCN(CC(=O)Nc3ccccc3C(=O)NCc3ccccc3)CC2)c1 | -60.9 |
| COc1ccc(NC(=O)C2=C(C)Nc3ncnn3C2c2ccccc2C(F)(F)F)c(OC)c1 (stereo not drawn) | 2.77 |
| Cl.O=C(OCCN1CCOCC1)c1ccc(Cl)cc1Cl | -0.913 |
| O=C(NCCS(=O)(=O)N1CCN(c2ccccc2F)CC1)c1ccco1 | -16.5 |
| Cn1nnnc1SCC(=O)c1c(N)n(C)c(=O)n(C)c1=O | 18.3 |
| Clc1ccc(-n2ncc3c(NCc4cccnc4)ncnc32)cc1Cl | 14.6 |
| COc1cccc(C2C3=C(CCCC3=O)NC3=C2C(=O)c2ccccc23)c1 (stereo not drawn) | 3.81 |
| CCOC(=O)c1[nH]c2ccc(F)cc2c1NC(=O)CN1CCc2cc(OC)c(OC)cc2C1 | -0.0862 |
| O=C(c1cccc(Cl)c1)N1CCCC(C(=O)N2CCN(c3ccccc3)CC2)C1 (stereo not drawn) | -49.6 |
| C=CCSc1nc2ccccc2n1Cc1nnc(-c2cccs2)o1 | -48.5 |
| CCC(C)[C@H](NC(=O)NCc1ccc(Cl)cc1)C(=O)O (stereo partly drawn) | -26.8 |
| O=C(NCc1ccccc1)C(c1ccncc1)N(C(=O)c1csnn1)C1CC1 (stereo not drawn) | 1.3 |
| CN(CC(=O)Nc1ccc(F)c(F)c1F)C(=O)C1CCN(C(=O)Nc2ccccc2)CC1 | -19.6 |
| COc1cc(OC)c2ccc(=O)oc2c1C(CCN1CCCC(C)C1)c1ccc(N(C)C)cc1 (stereo not drawn) | -10.6 |

| SMILES | hERG current change (%, negative = inhibition) at 10uM [%] |
| --- | --- |
| O=C(Oc1ccc(-c2nnco2)cc1)c1ccc(Br)o1 | 18.3 |
| O=C(CCN1C(=O)/C(=C\c2ccccc2Cl)SC1=S)Nc1cccnc1 | 15.1 |
| Nc1ncc(Br)cc1S(=O)(=O)NCCC(=O)NCc1ccc(F)cc1 | -20.6 |
| COc1ccc(C)cc1NC(=O)c1nn(C)cc1Br | 6.17 |
| Cc1cccc(CN2C(=O)c3ccccc3Sc3ccc(C(=O)O)cc32)c1 | 24.1 |
| O=S(=O)(Nc1cc(C(F)(F)F)ccc1N1CCOCC1)c1ccccc1 | 4.09 |
| COC(=O)NC1(C(F)(F)F)NC(=O)N(C2CCCCC2)C1=O (stereo not drawn) | 3.7 |
| C/C(=N\n1c(C)nc2ccccc2c1=O)c1ccc(N)cc1 | 17.1 |
| CCOc1ccc(NC(=O)Cn2nnc(C(=O)NCc3ccc(OC)cc3)c2N)cc1 | 6.1 |
| O=C(NCCS(=O)(=O)N1CCc2ccccc2C1)c1ccccc1 | -23 |
| CC(C)(C)OC(=O)CNC(=O)c1[nH]cnc1C(=O)N[C@@H](Cc1ccccc1)C(=O)OC(C)(C)C | -0.913 |
| CC(C)(C)C1=C(C#N)C(c2cccnc2)C(C#N)=C(N)O1 (stereo not drawn) | 4.42 |
| S=C(Nc1ccc(Oc2ccccc2)cc1)N(CCCN1CCOCC1)Cc1ccccn1 | -70 |
| C=CCn1c(COc2ccc(OC)cc2)nnc1SC(C)C(=O)NC1CC1 (stereo not drawn) | -11.6 |
| CCOc1cc(/C=N/N=C/c2ccc(O)c(OCC)c2)ccc1O | 9.33 |
| O=c1c(N2CCOCC2)nsnc1N1CCOCC1 | 1.94 |
| CNC(=O)CCCc1nc(-c2ccccc2Cl)no1 | 21.1 |
| CC1Oc2ccccc2OC1C(=O)Nc1ccccn1 (stereo not drawn) | 6.71 |
| O=C(CSc1nnc(NC(=O)Cc2ccccc2)s1)NCc1ccco1 | 5.42 |
| CN(C)CC(C)(C)CNC(=S)NCc1ccc2c(c1)OCO2 | -2.88 |
| O=C(O)c1cccc(S(=O)(=O)Nc2ccc(OCc3ccccc3)cc2)c1 | 23.6 |
